By IC50 is meant the dose at which the fit gives 50% viability; a fit beyond the top or the lowest dose is shown as a bound at that dose. For AUC the same curve is integrated over the 256-fold range of doses and scaled to a fraction; values near 1 show little effect. For some of these results: An inferred top dose was calculated from the reported fits. For some of these results: An entry number marks a drug with two screens in the source, which often give different values.
What was measured:
Test in all cases: Viability of human cancer cell lines after 72 h of drug (GDSC screen)
KU-55933 = compound: O=c1cc(-c2cccc3c2Sc2ccccc2S3)oc(N2CCOCC2)c1 [KU-55933]; details: top dose 10 µM
Method: (§1)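 Human cancer cell lines in 384-well plates, medium with 10% serum, drug for 72 h over a 256-fold dose range (nine 2-fold or five 4-fold steps up to the top dose). Adherent lines were fixed and stained with the nucleic acid dye Syto60, suspension lines read with resazurin; signal relative to control wells, capped at 0 and 100%. One two-parameter sigmoid per drug and line, fitted in a mixed model over all curves with the slope shared within a line.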

CHIR-99021 = compound: Cc1cnc(-c2cnc(NCCNc3ccc(C#N)cn3)nc2-c2ccc(Cl)cc2Cl)[nH]1 [CHIR-99021]
Method: as §1

Cytarabine = compound: Nc1ccn([C@@H]2O[C@H](CO)[C@@H](O)[C@@H]2O)c(=O)n1 [Cytarabine]; details: top dose 2 µM
Method: as §1

Thapsigargin = compound: C/C=C(/C)C(=O)O[C@H]1C(C)=C2[C@H]([C@@H]1OC(=O)CCCCCCC)[C@@](C)(OC(C)=O)C[C@H](OC(=O)CCC)[C@@]1(O)[C@H]2OC(=O)[C@@]1(C)O [Thapsigargin]; details: top dose 0.512 µM; top dose inferred
Method: as §1

CMK = compound: Cc1ccc(-c2c(C(=O)CCl)n(CCCO)c3ncnc(N)c23)cc1 [CMK]; details: top dose 4 µM; top dose inferred
Method: as §1

QL-X-138 = compound: C=CC(=O)Nc1cc(-n2c(=O)ccc3cnc4ccc(-c5cn[nH]c5)cc4c32)ccc1C [QL-X-138]; details: top dose 10.24 µM; top dose inferred
Method: as §1

(5Z)-7-Oxozeaenol = compound: COc1cc(O)c2c(c1)/C=C/C[C@H](O)[C@H](O)C(=O)/C=C\C[C@H](C)OC2=O [(5Z)-7-Oxozeaenol]; details: top dose 10 µM; top dose inferred
Method: as §1

ABT-869 = compound: Cc1ccc(F)c(NC(=O)Nc2ccc(-c3cccc4[nH]nc(N)c34)cc2)c1 [ABT-869]; details: top dose 1.024 µM; top dose inferred
Method: as §1

GSK269962A = compound: CCn1c(-c2nonc2N)nc2cnc(Oc3cccc(NC(=O)c4ccc(OCCN5CCOCC5)cc4)c3)cc21 [GSK269962A]; details: top dose inferred
Method: as §1

CP466722 = compound: COc1cc2ncnc(-n3nc(-c4ccccn4)nc3N)c2cc1OC [CP466722]; details: top dose 16 µM; top dose inferred
Method: as §1

ABT-888 = compound: C[C@]1(c2nc3c(C(N)=O)cccc3[nH]2)CCCN1 [ABT-888]; details: top dose 5 µM; top dose inferred
Method: as §1

Zibotentan = compound: COc1nc(C)cnc1NS(=O)(=O)c1cccnc1-c1ccc(-c2nnco2)cc1 [Zibotentan]; details: top dose 20 µM; top dose inferred
Method: as §1

MPS-1-IN-1 = compound: COc1cc(N2CCC(O)CC2)ccc1Nc1cc(Nc2ccccc2S(=O)(=O)C(C)C)c2cc[nH]c2n1 [MPS-1-IN-1]; details: top dose 20 µM; top dose inferred
Method: as §1

[1] = top dose 2.56 µM, screen: GDSC drug entry 154
[2] = top dose 10 µM, screen: GDSC drug entry 1241, top dose inferred
[3] = top dose 2.5 µM, screen: GDSC drug entry 127
[4] = top dose 5 µM, screen: GDSC drug entry 1192

Cell Line	AUC (KU-55933)	IC50 (KU-55933)	AUC (CHIR-99021; [1])	IC50 (CHIR-99021; [1])	AUC (CHIR-99021; [2])	IC50 (CHIR-99021; [2])	AUC (Cytarabine)	IC50 (Cytarabine)	AUC (Thapsigargin)	IC50 (Thapsigargin)	AUC (CMK)	IC50 (CMK)	AUC (QL-X-138)	IC50 (QL-X-138)	AUC ((5Z)-7-Oxozeaenol)	IC50 ((5Z)-7-Oxozeaenol)	AUC (ABT-869)	IC50 (ABT-869)	AUC (GSK269962A; [3])	IC50 (GSK269962A; [3])	AUC (GSK269962A; [4])	IC50 (GSK269962A; [4])	AUC (CP466722)	IC50 (CP466722)	AUC (ABT-888)	IC50 (ABT-888)	AUC (Zibotentan)	IC50 (Zibotentan)	AUC (MPS-1-IN-1)	IC50 (MPS-1-IN-1)
KGN (ovary, adherent)	0.959	> 10 µM	0.956	> 2.56 µM	0.863	> 10 µM	0.901	> 2 µM	0.143	< 0.002 µM	0.843	3.78 µM	0.408	0.338 µM	0.564	0.973 µM	0.981	> 1.02 µM	0.675	0.537 µM	0.852	> 5 µM	0.6	2 µM	0.98	> 5 µM	0.978	> 20 µM	0.863	> 20 µM
KINGS-1 (glioma, adherent)	0.94	> 10 µM	0.98	> 2.56 µM	0.794	6.68 µM	0.837	> 2 µM	0.341	0.00972 µM	0.976	> 4 µM	0.716	3.35 µM	0.781	5.86 µM	0.974	> 1.02 µM	0.954	> 2.5 µM	0.917	> 5 µM	0.977	> 16 µM	0.975	> 5 µM	0.977	> 20 µM	0.943	> 20 µM
KLE (endometrium, adherent)	0.952	> 10 µM	0.94	> 2.56 µM	0.889	> 10 µM	0.937	> 2 µM	0.572	0.056 µM	0.868	> 4 µM	0.673	2.56 µM	0.86	> 10 µM	0.964	> 1.02 µM			0.918	> 5 µM	0.775	10.3 µM	0.974	> 5 µM	0.969	> 20 µM	0.877	> 20 µM
KM12 (large intestine, adherent)	0.978	> 10 µM	0.956	> 2.56 µM	0.968	> 10 µM	0.903	> 2 µM	0.335	0.0107 µM	0.921	> 4 µM	0.821	6.63 µM	0.9	> 10 µM	0.971	> 1.02 µM	0.901	> 2.5 µM	0.984	> 5 µM	0.916	> 16 µM	0.985	> 5 µM	0.985	> 20 µM	0.839	15.4 µM
KM-H2 (Hodgkin lymphoma, suspension)	0.949	> 10 µM	0.993	> 2.56 µM	0.992	> 10 µM	0.993	> 2 µM	0.237	0.00646 µM	0.979	> 4 µM	0.8	4.1 µM	0.894	8.78 µM	0.989	> 1.02 µM	0.974	> 2.5 µM	0.958	> 5 µM	0.828	7.86 µM	0.987	> 5 µM	0.99	> 20 µM	0.968	> 20 µM
KMOE-2 (acute myeloid leukaemia, suspension)	0.861	7.03 µM	0.99	> 2.56 µM	0.989	> 10 µM	0.874	1.59 µM	0.678	0.0946 µM	0.976	> 4 µM	0.643	1.52 µM	0.343	0.241 µM	0.99	> 1.02 µM	0.98	> 2.5 µM	0.946	> 5 µM	0.649	2.46 µM	0.986	> 5 µM	0.99	> 20 µM	0.81	9.16 µM
KNS-42 (glioma, adherent)	0.956	> 10 µM	0.957	> 2.56 µM	0.935	> 10 µM	0.964	> 2 µM	0.276	0.00645 µM	0.931	> 4 µM	0.892	> 10.2 µM	0.768	4.47 µM	0.981	> 1.02 µM	0.902	> 2.5 µM	0.861	> 5 µM	0.871	> 16 µM	0.982	> 5 µM	0.982	> 20 µM	0.942	> 20 µM
KNS-81-FD (glioma, adherent)	0.937	> 10 µM	0.971	> 2.56 µM	0.961	> 10 µM	0.865	> 2 µM	0.857	> 0.512 µM	0.969	> 4 µM	0.668	2.23 µM	0.596	1.25 µM	0.949	> 1.02 µM	0.919	> 2.5 µM	0.737	1.93 µM	0.914	> 16 µM	0.974	> 5 µM	0.976	> 20 µM	0.971	> 20 µM
KP-N-YN (neuroblastoma, adherent)	0.953	> 10 µM	0.986	> 2.56 µM	0.812	5.98 µM	0.972	> 2 µM	0.509	0.0338 µM	0.943	> 4 µM	0.912	> 10.2 µM	0.489	0.58 µM	0.984	> 1.02 µM	0.985	> 2.5 µM	0.874	> 5 µM	0.963	> 16 µM	0.985	> 5 µM	0.982	> 20 µM	0.959	> 20 µM
